Among the test systems are K-562 leukemia; SF-295 CNS; RPMI-8226 leukemia; HOP-92 NSCLC; UACC-62 melanoma; HOP-62 NSCLC; 786-0 renal.
What all share (assay): growth of human tumour cells (NCI), 48 h

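Interpolation was linear, between the two tested concentrations surrounding the appropriate level; five concentrations were tested over 48 hours in 96-well plates. GI50 is the concentration that inhibits growth by half.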 The source holds more than one record for some entries. The other results are left out here. The source may hold further records. For some assays here: A record mostly stands for its own series of concentrations, not given here; a value can be the end of its range. For some assays here: Values that stand side by side are repeats across runs, samples, wells, individuals or studies. Brackets tell where a record comes from. Letters hold for one entry only.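 TGI denotes the concentration required for complete inhibition of growth.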 Bounds are passed on as bounds.

For `Nc1nc(N)c2c(ccc3c2ccn3Cc2cccc([N+](=O)[O-])c2)n1`, the GI50 is 7.31 nM and 191 nM in the assay on K-562 leukemia; 547 nM and 14.3 nM in the assay with SF-295 CNS; 1.27 µM and 28 nM in the assay on HOP-92 NSCLC. Moreover, in the assay with RPMI-8226 leukemia, the TGI is 2.81 µM and 75.9 nM.
`N#Cc1ccc(-c2ccc(Cl)cc2)n(C2OC(CO)C(O)C(O)C2O)c1=S` (stereo not drawn): the GI50 was > 100 µM [sample A, 1 test] and 5.53 µM [sample B, 1 test] with UACC-62 melanoma; > 100 µM [sample A, 1 test] and 3.64 µM [sample B, 1 test] in the assay with SF-295 CNS; > 100 µM [sample A, 1 test] and 5.53 µM [sample B, 1 test] in the assay with HOP-62 NSCLC; > 100 µM [sample A, 1 test] and 5.73 µM [sample B, 1 test] in the assay on 786-0 renal.

For the origin of these results see PubChem BioAssay (NCI).
